Experimental findings from publication PMC4336329 (PLoS ONE, 2015) are described below.

Out of some 310,000 compounds screened, about 2,200 (0.71%) showed an effect of 50% or more. Effects have a minus sign here. This is one part of the list.

human ether-à-go-go-related gene (hERG) potassium channel, sequence (Q12809 whole entry, looked up): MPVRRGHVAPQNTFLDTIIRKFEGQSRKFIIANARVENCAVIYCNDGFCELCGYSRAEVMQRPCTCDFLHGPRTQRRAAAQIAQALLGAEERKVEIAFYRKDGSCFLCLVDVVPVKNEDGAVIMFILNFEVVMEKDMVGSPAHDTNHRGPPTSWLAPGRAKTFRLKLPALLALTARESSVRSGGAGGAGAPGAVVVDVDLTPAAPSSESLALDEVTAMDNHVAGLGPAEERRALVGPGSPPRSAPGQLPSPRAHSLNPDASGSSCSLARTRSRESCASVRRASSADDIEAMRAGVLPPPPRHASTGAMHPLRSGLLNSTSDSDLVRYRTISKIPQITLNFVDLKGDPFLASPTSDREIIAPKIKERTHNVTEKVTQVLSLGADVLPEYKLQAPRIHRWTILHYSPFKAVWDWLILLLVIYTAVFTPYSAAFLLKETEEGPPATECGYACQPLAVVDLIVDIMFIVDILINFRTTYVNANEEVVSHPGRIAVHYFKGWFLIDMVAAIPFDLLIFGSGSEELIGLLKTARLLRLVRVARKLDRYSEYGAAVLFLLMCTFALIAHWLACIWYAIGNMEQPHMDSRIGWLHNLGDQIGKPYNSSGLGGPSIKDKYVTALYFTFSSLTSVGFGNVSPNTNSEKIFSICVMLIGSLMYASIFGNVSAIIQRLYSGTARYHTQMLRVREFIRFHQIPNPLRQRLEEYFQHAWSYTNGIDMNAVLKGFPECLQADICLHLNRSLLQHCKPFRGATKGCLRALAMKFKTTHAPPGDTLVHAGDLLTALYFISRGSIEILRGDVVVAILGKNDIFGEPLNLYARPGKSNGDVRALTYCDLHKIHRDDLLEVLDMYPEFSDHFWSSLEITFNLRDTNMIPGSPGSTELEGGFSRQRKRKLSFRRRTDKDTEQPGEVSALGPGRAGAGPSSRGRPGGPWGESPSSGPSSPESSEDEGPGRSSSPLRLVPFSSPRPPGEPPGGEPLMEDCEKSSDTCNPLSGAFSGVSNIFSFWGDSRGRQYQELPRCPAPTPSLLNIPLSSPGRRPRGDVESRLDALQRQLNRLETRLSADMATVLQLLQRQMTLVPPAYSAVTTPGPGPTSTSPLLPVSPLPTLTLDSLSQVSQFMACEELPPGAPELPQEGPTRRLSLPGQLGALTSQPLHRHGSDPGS

The assay concerns the target human ether-à-go-go-related gene (hERG) potassium channel (human, UniProt Q12809). The experiment in a line: primary screen, population patch clamp on CHO cells stably expressing hERG.
Regarding `CCSc1nnc(NC(=O)CCNS(=O)(=O)c2ccccc2F)s1`, the “hERG current change (%, negative = inhibition) at 1uM” value was 8.1%.

Take `CCOC(=O)c1ccc(NC(=S)NCc2ccc(F)cc2)cc1`: the “hERG current change (%, negative = inhibition) at 1uM” value was 11.5%.

In the case of `Cc1c(NS(=O)(=O)c2cccc(C(=O)NCc3ccncc3)c2)c(=O)n(-c2ccccc2)n1C`, the “hERG current change (%, negative = inhibition) at 1uM” value is 10.9%.

For `CSCCC(NC(=O)COc1ccccc1)C(=O)N(C)CC(=O)Nc1ccc(C)cc1` (stereo not shown), the “hERG current change (%, negative = inhibition) at 1uM” value is given as 4.33%.

`O=C(CSc1nncc(=O)[nH]1)NCc1ccccc1`: the “hERG current change (%, negative = inhibition) at 1uM” value turned out to be 7.3%.

Turning to `C/C(=N\NC(=S)Nc1cccc(C)c1)c1ccco1`, the “hERG current change (%, negative = inhibition) at 1uM” value was found to be 7.46%.

Turning to `CCc1cc(C(=O)Cc2ccc(F)cc2)c(O)cc1O`, the “hERG current change (%, negative = inhibition) at 1uM” value is reported as 9.49%.

Regarding `COc1cccc(Cn2cc(C(=O)NCCN(C)C)nn2)c1`, the “hERG current change (%, negative = inhibition) at 1uM” value was 10.4%.

For `CC(C)CCNC(=O)c1ccc(OC2CCN(S(=O)(=O)N(C)C)CC2)cc1`, the “hERG current change (%, negative = inhibition) at 1uM” value is recorded as 15.9%.

Take `CC(C)(C)C(=O)OCc1nc(-c2ccc(Cl)cc2)cs1`: the “hERG current change (%, negative = inhibition) at 1uM” value turned out to be 9.52%.

For `C=CCn1c(SCC(=O)N2CCOCC2)nc2scc(-c3ccco3)c2c1=O`, the “hERG current change (%, negative = inhibition) at 1uM” value is on record as -30.6%.

As for `CCOC(=O)CC(NS(=O)(=O)c1ccc(OC)c(OC)c1)c1cccc([N+](=O)[O-])c1` (stereo not shown), the “hERG current change (%, negative = inhibition) at 1uM” value stood at 2.91%.

For the compound `O=C(Cc1ccccc1)Nc1cc([N+](=O)[O-])ccc1N1CCOCC1`, the “hERG current change (%, negative = inhibition) at 1uM” value was -8.2%.

Regarding `COc1ccc(C(O)c2nccn2C)cc1` (stereo not shown), the “hERG current change (%, negative = inhibition) at 1uM” value came to 12.3%.

As for `COc1ccc(COC(=O)C2=C(C)NC(=O)NC2c2ccccc2F)cc1` (stereo not shown), the “hERG current change (%, negative = inhibition) at 1uM” value turned out to be 18.6%.

With `O=C(CN(C(=O)c1csnn1)c1ccc(F)cc1)NCc1ccc(F)cc1`, the “hERG current change (%, negative = inhibition) at 1uM” value worked out at 3.44%.

As to `COc1cccc(-c2nc(CS(=O)(=O)CC(=O)NCCc3cc(OC)ccc3OC)c(C)o2)c1`, the “hERG current change (%, negative = inhibition) at 1uM” value is 11.4%.

In the case of `Cc1ccc(C(=O)Nc2ccon2)cc1S(=O)(=O)N1CCOCC1`, the “hERG current change (%, negative = inhibition) at 1uM” value is reported as -4.23%.

`CC(C)N(Cc1nc(-c2ccccc2)no1)C(=O)C(C)(C)C`: the “hERG current change (%, negative = inhibition) at 1uM” value was determined as 2.17%.

In the case of `COCCN=C1NN=C(c2ccc(C)c([N+](=O)[O-])c2)CS1`, the “hERG current change (%, negative = inhibition) at 1uM” value is recorded as 9.31%.

With `COc1ccc(-c2[nH]ncc2/C=N\NS(=O)(=O)c2ccc(Cl)cc2)cc1`, the “hERG current change (%, negative = inhibition) at 1uM” value came to 7.39%.

As to `O=C(/C=C/NCc1cccnc1)c1ccc(Br)cc1`, the “hERG current change (%, negative = inhibition) at 1uM” value worked out at 8.42%.

As for `COc1ccc(N2C(=O)NC(NS(=O)(=O)c3ccccc3)(C(F)(F)F)C2=O)cc1` (stereo not shown), the “hERG current change (%, negative = inhibition) at 1uM” value worked out at 0.554%.

Regarding `COc1cc2cc(C(=O)N/N=C/c3ccccc3Cl)[nH]c2cc1OC`, the “hERG current change (%, negative = inhibition) at 1uM” value is listed as 8.39%.

For `Cc1ccc(C)c(N2CCN(S(=O)(=O)c3ccc4c(c3)NC(=O)CC(=O)N4)CC2)c1`, the “hERG current change (%, negative = inhibition) at 1uM” value came out at 8.13%.
